{"source": "paper PMC12136788", "binders": {"B1": {"name": "chr8:63210610:63210711:+|3pUTR|ENSG00000185728|msi1|FALSE|unique (ssRNA)", "RNA": "GGGAGUUCUACAGUCCGACGAUCCAUGAAGUAAAAAUUUAUUACUCUAGGUAUUCACUAGCUAAAUAAACAUAGUUCUUGUUUAGCAAGCAUAUGUUGUUCCUCAGCUCUUUUCUCCAGCUUUUGCAGUGUCCUGGCAUCCUUCAACAGAGGAUUGAGCAUCA"}, "B2": {"name": "chr1:226632358:226632459:-|3pUTR|ENSG00000143772|msi1|FALSE|unique (ssRNA)", "RNA": "GGGAGUUCUACAGUCCGACGAUCUCAAGCCAUUUUGCCACUCGCUUCCCUGCCAUCUGGCCCUUCCCUUUGUCUCAGUGGGAUAGAUGGAUUGUGAAAUGGAAUCUCCCAGAACCCCUGCCCUGGCAGCCUGGAAGACCGUGCCAACAGAGGAUUGAGCAUCA"}, "B3": {"name": "chr15:65118290:65118391:-|3pUTR|ENSG00000090470|msi1|total|mutant (ssRNA)", "RNA": "GGGAGUUCUACAGUCCGACGAUCACUUCCUUGUGUGUUGAUGGGUAAGUACACUCAAACACUGAAUACAGGUGUGUGAUGGGCCGAUUUCACAGCCCUUCUACUAACCGUGAGUGUGAAGGCAAGCUUGAUGCAAAACCUCCUCAACAGAGGAUUGAGCAUCA"}, "B4": {"name": "chr2:33399154:33399255:+|3pUTR|ENSG00000049323|msi1|total|mutant (ssRNA)", "RNA": "GGGAGUUCUACAGUCCGACGAUCAAGUACUUUAUAUUUUCAGUGUUUUGUCUGAUUUUAAUGUCCGUUCUCCGCCAAGCUGCCCGCAGGUGUUAAUUGGAUCCCUUUCCUUCACUGAAAUGGAAGAGUUUAUAAGCUUACGUUCAACAGAGGAUUGAGCAUCA"}, "B5": {"name": "ENSG00000124766:be:win_901|CDS|ENSG00000124766|bound_else_gene|NA|bound_elsewhere_windowed (ssRNA)", "RNA": "GGGAGUUCUACAGUCCGACGAUCGGCCUGGGCACGUCGUCGUCGCCCGUGGGCGGCGUGGGCGCGGGAGCCGACCCCAGCGACCCCCUGGGCCUGUACGAGGAGGAGGGCGCGGGCUGCUCGCCCGACGCGCCCAGCCUGAGCCAACAGAGGAUUGAGCAUCA"}, "B6": {"name": "chr6:89631235:89631336:+|3pUTR|ENSG00000135299|msi1|FALSE|unique (ssRNA)", "RNA": "GGGAGUUCUACAGUCCGACGAUCUGAAGUUUGAAAGCUCAGAUUAAGCAAGCCAUGCCAAGAAACUGGACGAUGUGUAAGCCUAGACUCUAAAAUUCAAGAUGUGUGAAAUAAUAUAAGUCAAAAGCAAGAAAAACGUAAUCCCAACAGAGGAUUGAGCAUCA"}}, "note": "The other results are listed elsewhere or left out.", "data": [{"biological_target": "T1, UNK ZnF1-6 (called full-length) (human, UniProt Q9C0B0 30-357)", "T1 sequence": "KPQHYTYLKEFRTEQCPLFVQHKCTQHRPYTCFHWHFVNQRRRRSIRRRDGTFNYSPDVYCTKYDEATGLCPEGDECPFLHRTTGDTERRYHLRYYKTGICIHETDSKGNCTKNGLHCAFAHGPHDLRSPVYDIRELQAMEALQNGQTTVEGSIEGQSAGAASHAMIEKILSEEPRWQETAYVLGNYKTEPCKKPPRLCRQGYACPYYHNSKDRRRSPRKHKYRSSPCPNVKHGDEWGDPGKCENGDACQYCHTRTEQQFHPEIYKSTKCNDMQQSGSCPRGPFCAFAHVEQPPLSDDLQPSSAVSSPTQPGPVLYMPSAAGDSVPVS", "assay": "nsRBNS (natural sequence RNA bind-n-seq); RBNS binding buffer (assumed for nsRBNS): 25 mM Tris pH 7.5, 150 mM KCl, 3 mM MgCl2, 0.01% Triton X-100, 500 ug/ml BSA, 20 U/ml SUPERase-In, 4 C; UNK is unkempt and MSI1 is Musashi-1; names of the RNAs are library labels; protein concentration not given here; high values mean tight binding", "units": {"binding signal": "enrichment R"}, "values": [{"binder": "B1", "binding signal": 2.01}, {"binder": "B2", "binding signal": 2.42}, {"binder": "B3", "binding signal": 0.318}, {"binder": "B4", "binding signal": 0.381}, {"binder": "B5", "binding signal": 6.13}, {"binder": "B6", "binding signal": 0.227}]}]}
